We go through 89 molecules from PMC4336329 (PLoS ONE, 2015).

Screen size: about 310,000 compounds; about 14,000 (4.5%) showed an effect of 50% or more. The effect is printed as a negative number. The list shows a part of the results.
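Further: peak tail current of the secondary pulse compared with the same well before compound.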

human ether-à-go-go-related gene (hERG) potassium channel, sequence (Q12809 whole entry, looked up): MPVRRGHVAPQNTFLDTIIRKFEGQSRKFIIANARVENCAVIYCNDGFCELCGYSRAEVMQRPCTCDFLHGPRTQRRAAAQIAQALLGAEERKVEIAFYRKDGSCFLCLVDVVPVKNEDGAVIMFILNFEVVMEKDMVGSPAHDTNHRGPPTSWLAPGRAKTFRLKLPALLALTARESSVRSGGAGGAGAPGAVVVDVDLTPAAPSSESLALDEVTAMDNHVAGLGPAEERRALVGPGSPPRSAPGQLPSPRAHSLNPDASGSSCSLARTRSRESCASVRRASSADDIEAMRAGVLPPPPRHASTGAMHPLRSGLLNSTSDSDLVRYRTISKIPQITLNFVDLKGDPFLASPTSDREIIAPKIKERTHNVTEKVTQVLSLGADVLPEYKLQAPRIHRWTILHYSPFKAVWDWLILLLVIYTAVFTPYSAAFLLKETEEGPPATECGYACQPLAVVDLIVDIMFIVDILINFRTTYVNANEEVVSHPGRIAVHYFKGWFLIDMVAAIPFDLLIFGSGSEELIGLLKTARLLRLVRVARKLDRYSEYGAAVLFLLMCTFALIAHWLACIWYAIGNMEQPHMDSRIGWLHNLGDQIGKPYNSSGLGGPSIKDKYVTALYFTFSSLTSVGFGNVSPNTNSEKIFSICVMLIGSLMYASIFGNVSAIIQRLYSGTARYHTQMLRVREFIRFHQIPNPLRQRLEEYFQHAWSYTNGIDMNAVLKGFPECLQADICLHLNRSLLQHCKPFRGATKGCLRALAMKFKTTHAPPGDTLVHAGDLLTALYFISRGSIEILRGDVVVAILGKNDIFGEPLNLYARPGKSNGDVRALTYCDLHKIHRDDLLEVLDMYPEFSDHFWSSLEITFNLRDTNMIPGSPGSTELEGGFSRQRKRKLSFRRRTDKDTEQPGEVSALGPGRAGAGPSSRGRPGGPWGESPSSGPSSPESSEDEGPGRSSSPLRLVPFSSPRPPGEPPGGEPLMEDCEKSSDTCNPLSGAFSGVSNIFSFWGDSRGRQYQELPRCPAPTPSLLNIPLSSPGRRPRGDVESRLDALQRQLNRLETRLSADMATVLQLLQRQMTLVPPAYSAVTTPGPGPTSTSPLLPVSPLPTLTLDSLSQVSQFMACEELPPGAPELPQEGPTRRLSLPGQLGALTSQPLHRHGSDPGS

The assay has as its target human ether-à-go-go-related gene (hERG) potassium channel (human, UniProt Q12809). The assay is described as follows: primary screen, population patch clamp on CHO cells stably expressing hERG.
Take `COC(=O)c1cc(-c2ccc(S(=O)(=O)N3CCCC3)cc2)c(C(F)(F)F)s1`: the “hERG current change (%, negative = inhibition) at 10uM” value is listed as 9.67%.
For `Cc1cc(NC(=O)CCC(=O)N(c2ccccc2)C(C(=O)NC2CCCC2)c2ccccc2C)no1` (centres unmarked) the value was -6.71%; for `CCOC(=O)C1=C(CS(=O)(=O)c2ccccc2)NC(=O)NC1c1ccccc1OCC` (centres unmarked), -4.89%; for `Cc1oc(-c2ccc(Cl)cc2)nc1CS(=O)CC(=O)NC1CCCCC1` (centres unmarked), -23.7%.
Next, `CCOC(=O)C1CCCN(C(=O)c2ccc(S(=O)(=O)Nc3ccccc3OC)cc2)C1` (centres unmarked): -29.2%; `Cc1ccnn1CCC(=O)N1CCCC(N2CCN(c3cccc(Cl)c3)CC2)C1` (centres unmarked): -30.3%.
Next, `COCCCNC(=O)C1CCC(CNS(=O)(=O)c2ccc(C)cc2)CC1` (centres unmarked): 14%; `CCCCC(NC(C)=O)c1nc2ccccc2n1CCCC` (centres unmarked): 5.02%; `Cc1cc(OCCN2CCCCCC2)ccc1[N+](=O)[O-].O=C(O)C(=O)O`: -46.2%.
`O=C(COC(=O)C12CC3CC(CC(O)(C3)C1)C2)NC12CC3CC(CC(C3)C1)C2`: the “hERG current change (%, negative = inhibition) at 10uM” value was determined as 9.45%.
For `N#Cc1ccc(-c2ccc(F)cc2)nc1Sc1ccccc1` the value was 15.5%; for `OCC[C@H]1C[C@@H](O)[C@H](O)[C@]2(OCCCc3ccccc32)O1`, -10.6%; for `COc1cccc(C(=O)OCC(=O)Nc2ccc(N3CCOCC3)cc2)c1`, 17.6%.
Next, `CCCc1nc(SCC(=O)c2ccc(OC)cc2)c2ccccc2n1`: -18.5%; `Cc1ccc(NC(=O)CSc2ncccn2)c([N+](=O)[O-])c1`: -5.7%.
Take `COc1cccc(C(C(=O)NC2CCCC2)N(C(=O)CNC(=O)c2ccco2)c2cccnc2)c1` (centres unmarked): the “hERG current change (%, negative = inhibition) at 10uM” value was determined as 12.1%.
Consider `COc1ccc(CNC(=O)COc2ccc(S(=O)(=O)N3CCOCC3)cc2)cc1`, for which the “hERG current change (%, negative = inhibition) at 10uM” value is listed as -9.37%.
With `CCCN(Cc1nnc(-c2cccs2)o1)C(=O)CN1C(=O)NC2(CCCCC2C)C1=O` (centres unmarked), the “hERG current change (%, negative = inhibition) at 10uM” value is given as -28%.
`COc1ccc(NN=Nc2ccc([N+](=O)[O-])cc2)cc1`: the “hERG current change (%, negative = inhibition) at 10uM” value is recorded as 19.1%.
Consider `c1cncc(CNc2cccc(-c3nc4ccccc4[nH]3)c2)c1`, for which the “hERG current change (%, negative = inhibition) at 10uM” value is -39.1%.
For `CCOc1ccc2ccccc2c1CNc1nnnn1C` the value was 5.26%; for `O=C(N1CCCC1)C(F)(F)Oc1ccc(F)cc1`, 17.3%.
For `CCN1CCN(c2ccc(S(=O)(=O)N3CCOCC3)cc2NC(=O)/C=C/c2cccc(OC)c2OC)CC1` the value was -5.19%; for `Cc1ccc(OCc2n[nH]c(=S)n2-c2ccccc2)cc1`, 18.7%; for `CCOC(=O)/C(N=O)=C(\O)C1CCN(C(=O)OCC)CC1`, 13.2%.
For `CCC(CC)c1nnc(NC(=O)c2ccc3c(c2)OCO3)s1` the value was 3.33%.
Regarding `Cc1c(C(=O)N2CCC3(CC2)OCCO3)sc2ncnc(N3CCN(c4ccccn4)CC3)c12`, the “hERG current change (%, negative = inhibition) at 10uM” value is listed as -44.2%.
Next, `CCCC12CN3CCN(C1)CC(CCC)(C3)C2=O`: 9%; `CSc1ccccc1C(=O)N1CCN(c2ncccn2)CC1`: 9.9%; `CCCn1c(CN(C)Cc2ccccc2)nc2c1c(=O)n(C)c(=O)n2C`: -23.4%.
For `CCCN1CCN(CCCNC(=S)Nc2ccc(OC)cc2)CC1` the value was -22.8%; for `COc1ccc(N2CCN(C(=O)c3ccc4c(=O)n(CC5CCCO5)c(=O)[nH]c4c3)CC2)cc1` (centres unmarked), 8.11%; for `CCOc1ccccc1C(=O)NCC(=O)OCC(=O)NCCc1ccc(S(N)(=O)=O)cc1`, 10%.
For `O=S(=O)(c1cccc(S(=O)(=O)N2CCC(Cc3ccccc3)CC2)c1)N1CCOCC1` the value was -0.6%; for `CCOc1ccccc1-c1nc(-c2cc3ccccc3nc2OC)no1`, 0.615%; for `O=C(NCc1ccncc1)c1cnccn1`, 5.67%.
With `COc1ccc(-c2cc(-c3ccc(Cl)cc3)c(C#N)c(SCC(=O)O)n2)cc1`, the “hERG current change (%, negative = inhibition) at 10uM” value is 4.28%.
Next, `CN(C)c1ccc(/C=N/NC(N)=S)cc1[N+](=O)[O-]`: 9.88%; `CCc1nc(SCC(=O)N2CCCCC2)c2c(=O)n(C)c(=O)n(C)c2n1`: -17.8%.
For `COC(=O)c1ccc(COc2ccccc2/C=N/NC(N)=O)o1` the value was 4.65%; for `CN1CCN(S(=O)(=O)c2cccc(C(=O)O)c2)CC1`, 10.8%; for `Cc1ccc(C2CC(=O)C=C(Nc3ccc(Cl)cc3)C2)cc1` (centres unmarked), 7.93%.
For `CCN(CC(=O)Nc1ccc2c(c1)OCCO2)C(=O)CCc1ccccc1Cl` the value was -30.6%; for `Cc1ccc(N2C(=O)N(CC(=O)Nc3cc(C)cc(C)c3)C(=O)C2C)cc1` (centres unmarked), 31.3%; for `COc1ccc(N2CCN(C(=O)NCc3ccc(OC)c(Cl)c3)CC2)cc1`, -8.68%.
For `CCN(CC)c1ccc(-c2nn3c(-c4n[nH]c5c4CCC5)nnc3s2)cc1`, the “hERG current change (%, negative = inhibition) at 10uM” value is reported as 2.73%.
On to `O=C(c1ccc(Br)o1)N1CCN(Cc2ccccc2Cl)CC1`, for which the “hERG current change (%, negative = inhibition) at 10uM” value is given as -12.6%.
For `Clc1cc(Br)ccc1OCCOCCOc1cccc2cccnc12` the value was 2.91%.
For `CC1(C)Cc2c(c(N3CCOCC3)nc3sc(C(=O)Nc4cccc(Cl)c4)c(N)c23)CO1` the value was 12.6%; for `CC(=O)Nc1ccc(OCCOc2ccccc2C(C)=O)cc1`, 7.77%; for `COc1ccc(C2=NN(CC(=O)NCC(OC)OC)C(=O)CC2)cc1`, -0.415%.
In the case of `CN1CCN(C(=O)c2cc(COc3c(F)cccc3F)on2)CC1c1ccccc1` (centres unmarked), the “hERG current change (%, negative = inhibition) at 10uM” value is given as -38.1%.
Next, `Cc1cccc(NC(=O)CCN2C(=O)c3cccc([N+](=O)[O-])c3C2=O)c1`: 10.8%.
For the molecule `Cc1ccc(C(=O)Nc2ccc(N3CCCC3)cc2)cc1`, the “hERG current change (%, negative = inhibition) at 10uM” value is 16.1%.
Next, `Nc1n[nH]c2ccccc12`: 20.5%; `Cc1[nH]c2ccccc2c1C(=O)C(=O)NCc1cccs1`: -0.498%.
Consider `Cc1cc(C)nc(N2CCC(C(=O)NC3CCCCCC3)CC2)n1`, for which the “hERG current change (%, negative = inhibition) at 10uM” value was -4.75%.
Next, `CC(=O)NC1(c2ccccc2)CCN(Cc2nnnn2C(C)(C)C)CC1`: 12.4%.
For `COCCCNC(=O)Cc1coc2ccc3ccccc3c12`, the “hERG current change (%, negative = inhibition) at 10uM” value is on record as -9.15%.
As to `CC(Oc1ccc(/C=N/NC(=O)Cc2cccc3ccccc23)cc1)C(=O)O` (centres unmarked), the “hERG current change (%, negative = inhibition) at 10uM” value is on record as -6.12%.
Next, `C/C(=N\N1CCCCCC1)c1c(O)n(C)c(=O)n(C)c1=O`: 18.4%; `Cc1cccc(N2CCN(C3CCCCC3NS(=O)(=O)c3ccccc3)CC2C)c1` (centres unmarked): 11.4%.
Next, `CC(C)CC(OC(=O)c1cccs1)C(=O)NCc1cccs1` (centres unmarked): -5.65%; `CCN(CC)S(=O)(=O)c1cccc(NC(=S)NC(=O)/C=C/c2ccc(S(=O)(=O)N3CCOCC3)cc2)c1`: -6.82%; `C=CCNC(=S)NC(CC(=O)OC)c1ccc2c(c1)OCO2` (centres unmarked): 4.12%.
Next, `O=C(NCC1c2ccccc2CCN1C(=O)CN1C(=O)c2ccccc2C1=O)C1CCCCC1` (centres unmarked): -6.49%; `CCN(CC)C(=O)N1CCn2c(nc3ccccc32)C1`: -0.701%.
Regarding `CCc1nnc(SCC(=O)Nc2ccc3c(c2)OCO3)n1CC`, the “hERG current change (%, negative = inhibition) at 10uM” value is reported as 13.2%.
For `O=C(NNC1=NS(=O)(=O)c2ccccc21)c1ccccc1Cl` the value was 7.15%; for `COCC(=O)Nc1cc(C)cn(Cc2ccccc2Cl)c1=O`, 15.1%.
For `O=[N+]([O-])c1cccc(/C=N/NC2=NS(=O)(=O)c3ccccc32)c1` the value was 25.4%; for `CCCn1c(SCC(=O)NC(C)(C)C)nnc1C(C)C`, 15%.
In the case of `COc1ccc(CCNC(=O)COC(=O)CSc2ccc([N+](=O)[O-])cc2)cc1OC`, the “hERG current change (%, negative = inhibition) at 10uM” value is -10.4%.
For `CC(C)OC(=O)c1cccc(NC(=O)CSc2nnc(N)s2)c1` the value was -17%; for `Cc1nc2ncccn2c1-c1csc(Nc2ccccc2)n1`, -54.7%.
`CCOC(=O)C1=C(c2ccccc2)OC(N)=C(C#N)C1C(C)C` (centres unmarked): the “hERG current change (%, negative = inhibition) at 10uM” value is on record as -3.43%.
For `Cc1ccc(-c2noc(CN3CCC(C(N)=O)CC3)n2)cc1` the value was 21.9%; for `COc1cc(/C=C/C(=O)OCC(=O)NC(=O)NC(C)C)ccc1OCC#N`, -16.8%; for `Cc1ccccc1NC(=O)CSc1cn[nH]n1`, 11.8%.
Regarding `COc1ccc(S(=O)(=O)N2CCC(C(=O)N3CCc4ccccc4C3)CC2)cc1OC`, the “hERG current change (%, negative = inhibition) at 10uM” value is on record as -27.4%.
Next, `COc1cccc(NC(=O)c2ccn(C)n2)c1`: 20.7%; `Cc1nc2cc(NC(=O)N(C)c3ccc4ccccc4c3)ccc2o1`: -3.63%.
For `Cc1ccc2cc(CN(CCO)Cc3nnnn3Cc3ccc(F)cc3)c(=O)[nH]c2c1`, the “hERG current change (%, negative = inhibition) at 10uM” value is -19.3%.
Turning to `CN(CC(=O)NCc1ccccn1)S(=O)(=O)c1ccc2ccccc2c1`, the “hERG current change (%, negative = inhibition) at 10uM” value was -9.77%.
Next, `O=c1cc(COc2ncnc3ccccc23)nc2sccn12`: 1.7%; `Cc1cc(F)ccc1S(=O)(=O)N1CCCOC1CNC(=O)C(=O)NCc1cccnc1` (centres unmarked): 7.92%.
Turning to `CN(CC(=O)Nc1cccc(F)c1)C(=O)c1cc(S(=O)(=O)N2CCCCC2)ccc1N1CCOCC1`, the “hERG current change (%, negative = inhibition) at 10uM” value is -2.94%.
For `Nc1c(/C=C2\C=Nc3ccccc32)c(=O)nc2sc(CC(=O)N3CCOCC3)nn12` the value was 17.2%; for `C=CCN1C(=O)C2C(C(=O)NC3CCCC3)C3C=CC2(O3)C1C(=O)NC1CCCC1` (centres unmarked), 19%.
